# Laboratory results reported in PubChem BioAssay AID485294 (National Center for Advancing Translational Sciences (NCATS), 2010).
# The campaign covered roughly 370,000 compounds. About 150 (0.041%) were called active. Inconclusive means that the source gave no clear call. Such entries were picked first, then a sample of the others. Calls follow the shape of the dose curve; as a rule, active = well fitted inhibition curve with a large enough effect; inconclusive = small, poorly fitted or top-dose-only effect; inactive = flat fitted curve, though single readings scatter. Potencies of inconclusive entries are left out as doubtful fits.
# Target: Beta-lactamase (Escherichia coli (strain K12)) (UniProt P00811)
# Test: qHTS Inhibitors of AmpC Beta-Lactamase (assay with detergent); also: nearly all actives have a fitted effect of over 25% in size
# Details: AmpC hydrolysis of nitrocefin, absorbance 480 nm, 0.01% Triton; series mostly up to 114 µM
# How it was run: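 20 mM phosphate pH 7.0 + 0.01% (detergent screen) or 0.0001% Triton X-100; 5.3 nM AmpC reagent; cpd preinc 15 min RT; nitrocefin (800 uM stock) to start; A480 q20 s × 4 min; Activity was normalised to no-enzyme and no-compound control wells.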
# Potency is read from the fitted curve at half-maximal effect; tags tell the direction and shape of the fitted curve.
# Sequence of UniProt P00811 (P00811 whole entry, looked up): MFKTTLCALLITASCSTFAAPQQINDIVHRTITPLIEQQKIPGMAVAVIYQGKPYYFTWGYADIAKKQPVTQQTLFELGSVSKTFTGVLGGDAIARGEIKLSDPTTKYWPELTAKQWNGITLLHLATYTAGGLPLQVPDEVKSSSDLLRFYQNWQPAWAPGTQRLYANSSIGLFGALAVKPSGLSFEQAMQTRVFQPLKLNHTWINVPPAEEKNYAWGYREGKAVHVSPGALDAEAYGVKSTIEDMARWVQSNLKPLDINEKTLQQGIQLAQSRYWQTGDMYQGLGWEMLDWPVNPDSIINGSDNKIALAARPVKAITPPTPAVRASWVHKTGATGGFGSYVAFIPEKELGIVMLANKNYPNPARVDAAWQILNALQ
row,Compound,Potency
1,COc1ccc2c(c1)cc(C)c1nnc(SCC(=O)N3CCN(C(=O)c4ccco4)CC3)n12,"inconclusive [inhibitor, full curve, poor fit]"
2,CN1CCC(=O)N(CCSc2ccc(Br)cc2)CC1,inactive
3,CCCS(=O)(=O)c1c(S(=O)(=O)CCC)c2ccccn2c1C(=O)OC,inactive
4,COc1cc(S(=O)(=O)N2CCCCC2)ccc1NC(C)=O,"inconclusive [inhibitor, partial curve, poor fit]"
5,Cc1ccc(S(=O)(=O)N(CCc2ccccc2)CC(=O)Nc2cc(C)ccc2C)cc1,inactive
6,CCc1ccccc1NC(=O)CCS(=O)(=O)c1ccc(Br)cc1,inactive
7,O=C(/C=C/c1ccco1)c1ccc(NC(=O)C23CC4CC(CC(C4)C2)C3)cc1,inactive
8,COc1ccccc1Cn1nc(C(=O)O)c2ccccc2c1=O,inactive
9,CCCCOC(=O)Nc1nccs1,"inconclusive [inhibitor, full curve, poor fit]"
10,CC1(C)CC(=O)C2(CC3=C(CC(C)(C)CC3=O)O2)C(=O)C1,"inconclusive [inhibitor, partial curve, poor fit]"
11,Nn1cnnc1N/N=C/c1ccccc1C(F)(F)F,inactive
12,COc1cc(OC)c(NC(=O)CC(=O)Nc2cc(Cl)c(OC)cc2OC)cc1Cl,"inconclusive [inhibitor, full curve, poor fit]"
13,COC1(OC)N=C(N)C2(C#N)C(c3ccc4c(c3)OCO4)C12C#N (centres undefined),"inconclusive [inhibitor, full curve, poor fit]"
14,COCCn1c(-c2ccc(OC)cc2)c(-c2ccc(OC)cc2)oc1=O,"inconclusive [inhibitor, full curve, poor fit]"
15,CC1=CCn2c(=O)c3ccccc3c(=O)n2C1,"inconclusive [inhibitor, full curve, poor fit]"
16,COc1cc(/C=C2/C(=O)N(c3ccc(Br)cc3)N=C2C)cc([N+](=O)[O-])c1O,"inconclusive [inhibitor, partial curve, poor fit]"
17,COc1ccc(-c2csc(/C(C#N)=C\c3cccc([N+](=O)[O-])c3)n2)cc1,"inconclusive [inhibitor, partial curve]"
18,CCOc1ccc(CCNC(=O)c2cn(CC)c3ccc(S(=O)(=O)N4CCCCCC4)cc3c2=O)cc1OCC,inactive
19,CCOC(=O)C1CCCN(c2c(NCCN(C)Cc3ccccc3)c(=O)c2=O)C1 (centres undefined),"inconclusive [inhibitor, full curve, poor fit]"
20,N#Cc1c(-c2cccs2)cc(-c2ccccn2)nc1N,"inconclusive [inhibitor, partial curve, poor fit]"
21,Cc1ccc(C)c(S(=O)(=O)N2CCCC2CNC(=O)C(=O)NC2CC2)c1 (centres undefined),"inconclusive [inhibitor, full curve, poor fit]"
22,C/C(=N\N(c1ccccc1)c1ccccc1)c1ccco1,inactive
23,Cc1nnc(NC(=O)CCS(=O)(=O)c2ccccc2)s1,"inconclusive [inhibitor, full curve]"

row,Compound,Potency
1,Cc1nc2ccccc2nc1OCC(=O)Nc1cc(C(F)(F)F)ccc1N1CCOCC1,inactive
2,O=C(COc1coc(CN2CCc3ccccc32)cc1=O)Nc1ccccc1,"inconclusive [inhibitor, full curve, poor fit]"
3,CC(C)=C1C(=O)NN(c2cccc(Cl)c2)C1=O,"inconclusive [inhibitor, full curve, poor fit]"
4,CCOC(=O)c1cc(-c2cccc([N+](=O)[O-])c2)nc2[nH]c(=O)[nH]c(=O)c12,inactive
5,COc1ccc(OC)c2c(C)cc(N3CCN(C(=O)c4ccc(Cl)cc4)CC3)nc12,"inconclusive [inhibitor, full curve, poor fit]"
6,COc1ccc(-c2cn(-c3ccc(C)c(C)c3)c(=S)[nH]2)cc1OC,inactive
7,CC(OC(=O)CCCN=C1NS(=O)(=O)c2ccccc21)C(=O)c1ccccc1 (centres undefined),inactive
8,O=C(C1CCCN(S(=O)(=O)c2cccc3cccnc23)C1)N1CCN(c2ccccc2F)CC1 (centres undefined),inactive
9,CCCCn1c(N)c(N(CCOC)C(=O)COC(=O)COc2cc(C)c(Cl)cc2C(C)C)c(=O)[nH]c1=O,"inconclusive [inhibitor, full curve]"
10,COc1ccc(C(=O)N2CCN(c3ccc(NC(=O)c4ccco4)cc3)CC2)cc1,inactive
11,N#C/C(=C(\O)c1cc(Cl)sc1Cl)c1nc2ccccc2[nH]1,"inconclusive [inhibitor, partial curve, poor fit]"
12,Cc1cccc(NS(=O)(=O)c2ccc(C(=O)N3CCCC3)cc2)c1C,"inconclusive [inhibitor, full curve]"
13,COc1cccc(N2CC(C(=O)Nc3nnc(SCCC4OCCO4)s3)CC2=O)c1 (centres undefined),"inconclusive [inhibitor, full curve, poor fit]"
14,CCN(CC)S(=O)(=O)c1ccc(C)c(NC(=O)CSc2nc3ccccc3[nH]2)c1,"inconclusive [inhibitor, full curve]"
15,O=Cc1ccc(C(=O)OCC(=O)NCCC2=CCCCC2)cc1,"inconclusive [inhibitor, full curve, poor fit]"
16,CN1c2ccccc2C(C)(C)C12CC(c1ccc(S(=O)(=O)N3CCCCC3)cc1)=NO2 (centres undefined),inactive
17,Cc1cccc(NC(=O)Cn2c(=O)nc(-c3ccccc3)c3ccccc32)c1C,inactive
18,CCOc1ccc(-n2c(N)c(-c3nc4ccccc4n3C)c3nc4ccccc4nc32)cc1,inactive
19,Cc1cccc(NC(=O)COc2coc(CN3CCc4ccccc4C3)cc2=O)c1,inactive
20,CN(Cc1ccccc1)Cc1nc2c(c(=O)n(C)c(=O)n2C)n1CCCc1ccccc1,"inconclusive [inhibitor, full curve]"
21,Cc1ccc(S(=O)(=O)N2CCC(=O)N(C(COCc3cccc(C(F)(F)F)c3)C(C)C)CC2)cc1 (centres undefined),"inconclusive [inhibitor, full curve, poor fit]"
22,CCCn1cc(SCC(=O)NCc2ccc3c(c2)OCO3)c2ccccc21,"inconclusive [inhibitor, full curve, poor fit]"
23,O=C(Cn1c(C(F)(F)F)nc2ccccc21)c1ccc(Br)cc1,"inconclusive [inhibitor, full curve, poor fit]"

row,Compound,Potency
1,O=C(COc1ccc(Cl)cc1)Nc1cc(S(=O)(=O)N2CCCCC2)ccc1N1CCCCC1,"inconclusive [inhibitor, full curve]"
2,CNC(=O)COc1ccc(NC(=O)CCn2nc(-c3ccc(C)cc3)c3ccccc3c2=O)cc1,inactive
3,CN(Cc1ccccc1)C(=O)Cn1c(=O)oc2cc(S(=O)(=O)NCc3ccccc3)ccc21,inactive
4,O=C(CN1CCN(C(=O)C2CCCO2)CC1)Nc1ccc(Cl)cc1 (centres undefined),"inconclusive [inhibitor, full curve]"
5,CP(=O)(Nc1ccc(Cl)cc1)c1nc2c(s1)CCCC2 (centres undefined),inactive
6,CCC(=O)N1c2ccccc2CC1C(=O)NCCc1ccc(C)cc1 (centres undefined),inactive
7,COc1cccc(C(c2c(C)[nH]n(-c3ccccc3)c2=O)c2c(C)[nH]n(-c3ccccc3)c2=O)c1OC,"inconclusive [inhibitor, full curve, poor fit]"
8,Cc1cc(NC2CCCCC2)nc2ccccc12,"inconclusive [inhibitor, single point]"
9,COC(C(=O)N1CCC(CCC(=O)Nc2ccccc2)CC1)c1ccccc1 (centres undefined),"inconclusive [inhibitor, partial curve]"
10,COc1ccc(-n2nc3c(c2NC(=O)CCCCl)CSC3)cc1,"inconclusive [inhibitor, partial curve, poor fit]"
11,O=C(Cn1c2c(sc1=O)C1c3ccccc3OCC1CS2)Nc1ccc(Cl)c(Cl)c1 (centres undefined),"inconclusive [inhibitor, full curve]"
12,CCCCN(C)C(=O)C1CCN(CCCc2ccccc2)CC1,"inconclusive [inhibitor, single point]"
13,CC1(C)CC(=O)C2=C(C1)Oc1ncn(CCCO)c(=N)c1C2c1ccccc1 (centres undefined),"inconclusive [inhibitor, full curve, poor fit]"
14,C[C@@H](O)CC(=O)O,"inconclusive [inhibitor, partial curve, poor fit]"
15,COCCCNc1nc2c(S(=O)(=O)c3ccc(C)c(C)c3)nnn2c2ccc(Cl)cc12,inactive
16,N#Cc1c(N(CCO)CCO)nc(N)c2c(N)nc3c(c12)CC(=O)N3CC1CCCO1 (centres undefined),inactive
17,O=C(NCc1ccccc1Cl)/C(=C\c1cccnc1)NC(=O)c1ccccc1,"inconclusive [inhibitor, full curve, poor fit]"
18,COc1cc(OC)c(NS(=O)(=O)c2cc(-c3cnc(C)o3)ccc2OC)cc1Cl,inactive
19,O=C(/C=C/c1ccco1)N1CCN(c2ccc(F)cc2)CC1,inactive
20,Cc1ccccc1C(=O)Nc1ccc2c(C#N)c3nc4ccccc4nc3n2c1,"inconclusive [inhibitor, partial curve, poor fit]"
21,CCOc1cc(C)c(S(=O)(=O)Nc2ccc3cn[nH]c3c2)cc1C,"inconclusive [inhibitor, partial curve]"
22,Cc1cc(C)nc(Sc2ccc3nnnn3n2)n1,"inconclusive [inhibitor, single point]"
23,C[C@@H](C(=O)NCCc1ccccc1F)N1C(=O)N2CCc3c([nH]c4ccccc34)[C@@]2(C)C1=O,"inconclusive [inhibitor, full curve, poor fit]"
